Screen size: about 320,000 compounds; about 7,600 (2.4%) were called active. The inconclusive results got no clear call from the source; some entries with a clear call stand among them for comparison. Calls follow the shape of the dose curve; as a rule, active = well fitted activation curve with a large enough effect; inconclusive = small, poorly fitted or top-dose-only effect; inactive = no such curve, though single readings can be large or run the other way. Potencies of inconclusive entries are left out as doubtful fits.
assay: qHTS Assay for NPC1 Promoter Activators; settings: Huh7 NPC1 promoter luciferase reporter, 24 h; series mostly up to 9.22 µM; also: nearly all actives have a fitted effect of over 60% in size;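 as to activation: reporter is driven by a mutant NPC1 promoter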
How it was run: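 Compounds in DMSO were transferred onto Huh7 NPC1-luciferase reporter cells pre-incubated 2 h; after 24 h at 37 °C, Amplite reagent was dispensed and luminescence recorded 10 min later.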
Potency is read from the fitted curve at half-maximal effect; tags tell the direction and shape of the fitted curve.

Structure (SMILES)	Potency
COCCN(C(=O)c1sc2ccccc2c1Cl)c1c(N)n(CC(C)C)c(=O)[nH]c1=O	inactive
CC(C)CNC(=O)c1cc(-c2ccc(Br)cc2)on1	active: 3.16 µM
COc1cccc(-c2nc(CS(=O)(=O)c3ccccc3)no2)c1	active: 2.82 µM
Nc1ccc(Nc2nc(-c3ccncc3)cs2)cc1	inconclusive [activator, single point]
Cc1ccc(C(=O)CC(=O)c2ccc(C(C)(C)C)cc2)cc1	inconclusive [activator, single point]
Cc1cc(=O)n2[nH]c(-c3ccc(Cl)cc3)cc2n1	inconclusive [activator, partial curve]
O=C(Nc1nc(-c2ccc3c(c2)OCCO3)cs1)C1CCCC1	inconclusive [activator, single point]
CSc1ccc(S(=O)(=O)N2CCC(C(=O)NCCN3CCOCC3)CC2)cc1	inactive
CC(=O)c1ccc(S(=O)(=O)Nc2cccc(-c3ccc(N4CCOCC4)nn3)c2)cc1	inconclusive [activator, partial curve]
COCCNC(=O)CN1CCCCCC1	inactive
Cc1ccc(NC(=O)COc2ccc3c(c2)OCO3)c(C)c1	inconclusive [activator, partial curve]
CCSc1nsc(NC(=O)Nc2ccc(F)cc2F)n1	inconclusive [activator, partial curve]
Cc1cc(C)nc(Nc2n[nH]c(-c3ccccc3N)n2)n1	active: 0.447 µM
c1ccc(CCc2nc(-c3cccnc3)no2)cc1	inconclusive [activator, partial curve]
O=C(CNC(=O)c1cccs1)OCC(=O)c1ccc(Br)cc1	inactive
Cn1c(=O)[nH]c(=O)c2c1nc(SCCN1CCCCC1)n2CCCc1ccccc1	inactive
COCCn1c(-c2ccc(Br)cc2)nc2oc3cc(OC)ccc3c(=O)c2c1=O	inactive
Cc1cc(-c2ccc(C(=O)O)s2)cnc1N	inconclusive [activator, partial curve]
O=C(CSc1nnc(-c2cccnc2)o1)Nc1nccs1	inconclusive [activator, partial curve]
O=C(CSc1nc2ccccc2c(=O)n1NC(=O)c1ccccc1)c1ccc(Cl)cc1	inconclusive [activator, partial curve]
Cc1ccc(C(=O)Nc2sc3c(c2C(=O)O)CCCC3)o1	inconclusive [activator, partial curve]

Structure (SMILES)	Potency
N#Cc1c(NC(=O)c2cnn3cccnc23)sc2c1CCCC2	inconclusive [activator, single point]
O=C(NCC1CCCO1)C(c1cccnc1)N(C(=O)Cc1cccs1)c1ccccc1 (stereo unspecified)	inconclusive [activator, single point]
CC(/C=C/C(=O)c1ccc(C)cc1)=C\c1ccccc1	inconclusive [activator, single point]
CC1=C(CC(=O)c2ccc(Cl)cc2)C(=O)c2ccccc2C1=O	inconclusive [activator, partial curve]
Cc1ccc(C(=O)Nc2cc(Cl)ccc2OC(=O)c2ccc(C)cc2)cc1	inconclusive [activator, single point]
COc1ccc(/C(C)=N/Nc2nccnc2Cl)cc1	inconclusive [activator, partial curve]
CCCCOc1[nH]c2nc(-c3ccco3)n(Cc3ccco3)c(=N)c2c1C#N	inactive
Cn1cc([N+](=O)[O-])c(C(=O)Nc2ccc3nc(-c4ccccc4)[nH]c3c2)n1	active: 3.16 µM
CN(Cc1cccs1)C(=O)CCc1c[nH]c2ccccc12	inactive
COc1ccc(-c2cc(-c3ccccc3)no2)cc1	active: 0.501 µM
COc1ccc(C2CC(c3ccc(Cl)cc3)=NN2C(C)=O)cc1 (stereo unspecified)	inconclusive [activator, partial curve]
CC(=O)N1CCOc2cc(S(=O)(=O)Nc3cccc(C(F)(F)F)c3)c(Cl)cc21	inactive
O=C(NCC1CCCCC1)c1ccc(F)cc1Cl	inconclusive [activator, partial curve]
O=c1oc2cc(Cl)ccc2n1CSc1nc2ccccc2s1	inconclusive [activator, partial curve]
O=C(O)c1cccc(COc2ccccc2Cl)c1	inconclusive [activator, partial curve]
O=C(c1cc(-c2ccc(Cl)cc2Cl)on1)N1CCOCC1	active: 0.398 µM
c1ccc2c(N3CCOCC3)nc(N3CCOCC3)nc2c1	inactive
CCN(CC)C(=O)C1CC(c2ccc(OC)cc2)=NO1 (stereo unspecified)	inconclusive [activator, partial curve]
CCCC(=O)NCCc1cc2ccc(C)c(C)c2[nH]c1=O	inactive
N#Cc1ccccc1NC(=O)COC(=O)c1ccc(F)cc1F	inactive
CCC(=O)Oc1ccc(-c2nc(-c3cccnc3)no2)cc1	active: 3.98 µM

Structure (SMILES)	Potency
Cc1ccc(S(=O)(=O)N2CCN(C(=O)COC(=O)C3CCC3)CC2)cc1	inactive
C/C(=N/NC(=O)CNC(=O)Cc1ccccc1)c1ccc(Cl)cc1	inactive
O=C(Nc1ccc(COc2ccccc2)cc1)Nc1cccc(C(=O)O)c1	inconclusive [activator, partial curve]
COc1cc(C(=O)Nc2cccc(C)c2C)ccc1OCC(=O)N1CCOCC1	inactive
COc1ccc(C(=O)Cn2cnc3ccccc3c2=O)cc1	inconclusive [activator, partial curve]
O=C(NC(=S)Nc1cccc([N+](=O)[O-])c1)c1ccccc1	inconclusive [activator, partial curve]
O=C1c2ccccc2C(=O)C1c1ccccn1	active: 2.51 µM
COc1cc(NC(=O)c2c(OC)cccc2OC)ccc1NC(=O)c1cc2ccccc2o1	inconclusive [activator, partial curve]
CCOC(=O)Cc1csc(NC(=O)c2ccc(NC(C)=O)cc2)n1	inactive
Cc1cc(C(=O)CSc2nncs2)c(C)n1-c1ccc2c(c1)OCO2	inconclusive [activator, partial curve]
Cc1cc(N2CCC(C)CC2)nc(NCc2ccccc2)n1	inactive
CC(=O)Nc1ccc2c(c1)nc(C)n2-c1ccccc1	inconclusive [activator, single point]
O=c1c2ccccc2nc2ccc(N3CCOCC3)nn12	inconclusive [activator, partial curve]
c1ccc(-n2cnc3cc(NCc4ccco4)ccc32)cc1	inconclusive [activator, partial curve]
O=C1C2C(C(=O)N1/N=C/c1cccc([N+](=O)[O-])c1)C1C=CC2C12CC2 (stereo unspecified)	inconclusive [activator, single point]
COc1ccc(-c2csc(NC(=O)c3ccccc3F)c2C(=O)O)cc1	inconclusive [activator, single point]
Cc1ccc(NC(=O)CCSCCc2ccccn2)cc1	inactive
O=C1NC(=Nc2ccccc2)S/C1=C\c1ccccc1	inconclusive [activator, single point]
Cc1csc(NC(=O)c2oc3ccccc3c2C)n1	active: 3.16 µM
Cc1cccc(-c2nnc(-c3ccccc3)o2)c1	inconclusive [activator, single point]
Cc1ccc(-c2csc(NC(=O)c3ccc(F)cc3)c2C(=O)O)cc1	inconclusive [activator, partial curve]

Structure (SMILES)	Potency
Clc1ccccc1Cn1nnc(-c2cccs2)n1	active: 3.16 µM
COc1ccc(C(=O)Nc2ccc3c(c2)OCO3)cc1OC	inconclusive [activator, partial curve]
O=C(CSc1nnc(-c2ccc(O)cc2)o1)Nc1ccccc1	active: 2.51 µM
O=C1C=CC(=C(c2ccc(O)cc2)c2ccc(O)cc2)C=C1	inactive
Cc1nc(C)c(-c2csc(NCc3ccccc3)n2)s1	inactive
COc1cccc(-c2nnn(CC(=O)N3CCCCC3)n2)c1	inactive
O=C(Nc1ccc2c(c1)OCCO2)c1cc(-n2cnnc2)ccc1Cl	inactive
O=C(CSc1ccc(-c2ccccn2)nn1)N1CCc2ccccc21	inactive
C=CCn1c(SCC(=O)NCC(c2ccccc2)N(C)C)nnc1C1CCCCC1 (stereo unspecified)	inactive
Cc1cccc2nc(C(=O)Nc3cccc(C(=O)NC4CC4)c3)cn12	inconclusive [activator, single point]
COc1ccccc1C(=O)COC(=O)COc1cccc2c1OC(C)(C)C2	active: 2 µM
COC(=O)c1ccc(OCC(=O)c2ccccc2)cc1	active: 3.16 µM
Cc1ccc(-c2csc(NC(=O)c3cccs3)n2)cc1	inconclusive [activator, partial curve]
CCN1CCN(c2ccc(N=Cc3ccc(O)cc3O)cc2)CC1	inactive
Cc1ccc(C(=O)CC(=O)c2ccc(C)cc2O)cc1	inconclusive [activator, partial curve]
Cc1ccc(-n2[nH]c(=O)c(-c3ccccn3)c2C)cc1	inconclusive [activator, partial curve, poor fit]
Cc1ccc2c(cnn2C(=O)CCC(=O)N2CCCCC2C)c1 (stereo unspecified)	inactive
Cc1ccnc(N(C(=O)Nc2ccccc2)C2=NCC(C)(C)S2)c1	active: 2.51 µM

Reference: PubChem BioAssay AID485313 (National Center for Advancing Translational Sciences (NCATS), 2010)
